# Source: PubChem BioAssay (Tox21)
# Values joined by “and” are separate entries in the source; they are usually repeats but may differ in a detail not shown here. Equal values may be shown once. Inconclusive results, whose numbers are uncertain, are shown with a selection of clear calls. For some of these results: Potencies of inconclusive entries are doubtful fits and often do not repeat. Where a structure was tested more than once in an assay, its records may differ in their call. Active and inactive are the calls of the source. Unless noted, the call rests on the fitted dose curve; in most records, active means well fitted curve in the direction sought with a large enough effect in the repeat runs; inconclusive means weak or mixed curves; inactive means no such curve, though single readings can be large; an effect the other way counts as inactive or inconclusive.
# How the values were obtained:
# [1] = qHTS assay for identifying genotoxic compounds that show differential cytotoxicity against isogenic chicken DT40 cell lines with known DNA damage response pathways - wild type cell line (AID 743012); conditions: DT40 wild type chicken cells viability, CellTiter-Glo, 40 h; activity change, negative = cytotoxicity: at 68.4 µM (top of the series) unless noted; further: nearly all actives have a fitted effect of over 60% in size; further: potency means the concentration at half of the fitted maximal effect
# Summary of the method: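 Using parental DT40 (300 cells/well), compounds delivered in DMSO incubate 40 h at 37 C/5% CO2. CellTiter-Glo reagent then stands 30 min at room temperature, and luminescence gives cell viability.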
# [2] = qHTS assay for identifying genotoxic compounds that show differential cytotoxicity against isogenic chicken DT40 cell lines with known DNA damage response pathways - Rev3 mutant cell line (AID 743014); conditions: chicken DT40 Rev3-/- viability, CellTiter-Glo, 40 h; activity, negative = cytotoxicity: at 68.4 µM (top of the series); further: nearly all actives have a fitted effect of over 55% in size; further: potency means the concentration at half of the fitted maximal effect
# [3] = qHTS assay to identify small molecule antagonists of the androgen receptor (AR) signaling pathway - cell viability counter screen (AID 743033; further: nearly all actives have a fitted effect of over 45% in size; further: potency means the concentration at half of the fitted maximal effect); conditions: AR-bla HEK293 viability, CellTiter-Glo luminescence, 16 h; activity change, negative = cytotoxicity: at 58.5 µM (top of the series)
# [4] = qHTS assay for identifying genotoxic compounds that show differential cytotoxicity against isogenic chicken DT40 cell lines with known DNA damage response pathways - Rad54/Ku70 mutant cell line (AID 743015); conditions: DT40 Rad54/Ku70 mutant viability, CellTiter-Glo, 40 h; activity change, negative = cytotoxicity: at 66.8 µM (top of the series); further: nearly all actives have a fitted effect of over 60% in size; further: potency means the concentration at half of the fitted maximal effect
# [5] = qHTS assay to identify small molecule antagonists of the androgen receptor (AR) signaling pathway using the MDA cell line - cell viability counter screen (AID 743041; further: nearly all actives have a fitted effect of over 45% in size; further: potency means the concentration at half of the fitted maximal effect); conditions: MDA-kb2 viability, CellTiter-Fluor, 16 h, cells co-treated with R1881 androgen agonist; viability change, negative = cytotoxic: at 70.3 µM (top of the series) unless noted
# Summary of the method: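 Same-well cytotoxicity was assessed by CellTiter-Fluor in MDA-kb2 AR-luc cells after 16 h of compound treatment under R1881 agonism.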
# [6] = biological target: Androgen receptor (Homo sapiens) (UniProt P10275); assay: qHTS assay to identify small molecule antagonists of the androgen receptor (AR) signaling pathway (AID 743035; active means well fitted inhibition curve with a large enough effect in the signal ratio in the repeat runs, not every such curve was filed as active; inconclusive means weak or mixed curves, or effect the other way; inactive means no such curve, though single readings can be large or run the other way; the % refers to the signal ratio; further: potency means the concentration at half of the fitted maximal effect); conditions: HEK293 AR-UAS-bla, R1881-stimulated, beta-lactamase FRET, 16 h; activity change, negative = inhibition: at 58.5 µM (top of the series) unless noted
# Chain of UniProt P10275 (P10275 whole entry, looked up): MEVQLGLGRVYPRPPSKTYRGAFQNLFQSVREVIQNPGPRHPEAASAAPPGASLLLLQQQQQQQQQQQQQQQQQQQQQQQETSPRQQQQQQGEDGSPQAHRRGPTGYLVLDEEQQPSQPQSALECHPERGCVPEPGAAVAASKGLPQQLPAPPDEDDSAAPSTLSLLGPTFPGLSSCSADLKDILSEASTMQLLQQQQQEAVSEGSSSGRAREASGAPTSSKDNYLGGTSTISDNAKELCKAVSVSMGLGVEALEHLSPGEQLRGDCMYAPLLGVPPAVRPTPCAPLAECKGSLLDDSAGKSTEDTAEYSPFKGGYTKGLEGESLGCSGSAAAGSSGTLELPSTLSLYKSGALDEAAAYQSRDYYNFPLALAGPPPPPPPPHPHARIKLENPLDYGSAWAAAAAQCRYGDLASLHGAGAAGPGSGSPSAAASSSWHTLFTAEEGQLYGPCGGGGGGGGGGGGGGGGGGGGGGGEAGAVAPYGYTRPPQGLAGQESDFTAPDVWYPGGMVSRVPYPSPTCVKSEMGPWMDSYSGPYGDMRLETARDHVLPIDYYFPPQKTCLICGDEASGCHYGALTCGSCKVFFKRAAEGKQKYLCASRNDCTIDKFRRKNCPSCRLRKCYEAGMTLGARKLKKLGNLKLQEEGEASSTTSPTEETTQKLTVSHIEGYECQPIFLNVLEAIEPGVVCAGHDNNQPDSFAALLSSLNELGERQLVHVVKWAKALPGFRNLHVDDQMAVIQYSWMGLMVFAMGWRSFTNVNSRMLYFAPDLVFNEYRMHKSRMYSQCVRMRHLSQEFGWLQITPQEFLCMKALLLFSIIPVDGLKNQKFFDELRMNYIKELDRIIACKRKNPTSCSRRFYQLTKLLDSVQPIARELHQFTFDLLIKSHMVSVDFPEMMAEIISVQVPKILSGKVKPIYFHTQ
# Summary of the method: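 Using qHTS, AR-UAS-bla GripTite HEK293 cells received compound, then R1881, and were cultured 16 h at 37C/5% CO2 before a 2 h room-temperature LiveBLAzer B/G FRET substrate step and fluorescence measurement.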
# [7] = biological target: Androgen receptor (Homo sapiens) (UniProt P10275); assay: qHTS assay to identify small molecule agonists of the androgen receptor (AR) signaling pathway (AID 743036; active means well fitted activation curve with a large enough effect in the signal ratio in the repeat runs, with a control signal flat, not every such curve was filed as active; inconclusive means weak or mixed curves, or effect the other way; inactive means no such curve, though single readings can be large or run the other way; the % refers to the signal ratio; further: potency means the concentration at half of the fitted maximal effect); conditions: HEK293 AR-UAS-bla GripTite, beta-lactamase FRET ratio, 16 h; activation: at 62.4 µM (top of the series) unless noted
# Summary of the method: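 Activation was read as beta-lactamase FRET signal from LiveBLAzer B/G substrate, added for 2 h at room temperature. Before that, GeneBLAzer AR-UAS-bla GripTite (HEK293) cells had 16 h compound exposure at 37C.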
# [8] = qHTS assay to identify small molecule antagonists of the thyroid receptor (TR) signaling pathway - cell viability counter screen (AID 743064); conditions: GH3.TRE-Luc viability, CellTiter-Fluor, 24 h; activity change, negative = cytotoxic: at 70.3 µM (top of the series) unless noted; further: nearly all actives have a fitted effect of over 50% in size; further: potency means the concentration at half of the fitted maximal effect
# Summary of the method: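 In-well cytotoxicity read by CellTiter-Fluor (30 min, 37 C) following 23.5 h exposure of GH3 cells bearing a TRE-luciferase sensor. Compounds were added alongside 1 nM (final) T3 to drive TR transactivation.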
# [9] = biological target: Androgen receptor (Homo sapiens) (UniProt P10275); assay: qHTS assay to identify small molecule agonists of the androgen receptor (AR) signaling pathway using the MDA cell line (AID 743040; further: nearly all actives have a fitted effect of over 20% in size); conditions: MDA-kb2 AR-luc cells, MMTV luciferase, 16 h; activity change: at 70.3 µM (top of the series), stronger effect = higher value
# Summary of the method: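 Human breast carcinoma MDA-kb2 reporter cells (MMTV-luc, AR/GR elements) were treated for 16 h at 37C in 0% CO2 following a 5 h settling period. Signal was quantified by ONE-Glo luminescence.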
# [10] = biological target: Androgen receptor (Homo sapiens) (UniProt P10275); assay: qHTS assay to identify small molecule antagonists of the androgen receptor (AR) signaling pathway using the MDA cell line (AID 743042; further: nearly all actives have a fitted effect of over 55% in size; further: potency means the concentration at half of the fitted maximal effect)
# Summary of the method: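 MDA-kb2 breast carcinoma cells carrying MMTV-luciferase (AR/GR responsive) were co-treated with compounds and the agonist R1881 for 16 h at 37C. Inhibition read as ONE-Glo luminescence; CellTiter-Fluor fluorescence measured in parallel for cytotoxicity.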
# On the % scale 0 is the no-effect control and ±100 the full control effect; tags describe the fitted curve by direction and shape or compound fluorescence and quenching.
smiles,measurement,setting,value
CC(=O)C1=C(C)[C@@H]2C[C@@]3(C1)[C@H](C)CC[C@H]3C2(C)C,Potency,[1],inactive
same,Potency,[2],"inactive and inconclusive: 68.6 µM [cytotoxic, single point]"
same,Potency,[3],"inconclusive: 0.776 µM [cytotoxic, full curve]"
Cc1cccc(O)c1N,Potency,[1],"inconclusive: 7.77 µM [rising, full curve]"
same,Potency,[2],"inconclusive: 34.7 µM [cytotoxic, partial curve, poor fit]"
same,Potency,[4],"inconclusive: 27.6 µM [cytotoxic, partial curve]"
same,Potency,[5],"inconclusive: 69.3 µM [cytotoxic, single point]"
O=C(O)Cc1ccc(OCCNC[C@H](O)c2ccccc2)cc1,Potency,[1],"inconclusive: 33.5 µM [cytotoxic, single point]"
same,Potency,[2],"inconclusive: 26.6 µM [cytotoxic, single point]"
same,Potency,[4],inconclusive: 33.5 µM [cytotoxic]
same,"activity change, negative = inhibition",[6],inconclusive: 23.9%
same,activation,[7],inconclusive: -1.91%
CC(C)OC(=O)c1cc(C(=O)OC(C)C)cc([N+](=O)[O-])c1,Potency,[1],"inconclusive: 2.49 µM [rising, full curve, poor fit]"
same,Potency,[2],inconclusive: 78.8 µM
same,Potency,[8],"inconclusive: 2.79 µM [rising, single point]"
COc1ccccc1N1CCN(CC(O)COc2cccc3ccccc23)CC1 (stereo not drawn),Potency,[1],active: 23.7 µM
same,Potency,[4],active: 29.8 µM
same,Potency,[3],"inconclusive: 1.69 µM [cytotoxic, full curve, poor fit]"
O=C1OC2(c3cc(Br)c(O)c(Br)c3Oc3c2cc(Br)c(O)c3Br)c2c(Cl)c(Cl)c(Cl)c(Cl)c21,Potency,[1],"inconclusive: 77 µM [cytotoxic, single point] and inconclusive: 9.32 µM [cytotoxic, partial curve, poor fit]"
same,Potency,[4],inactive
same,Potency,[3],"inconclusive: 55 µM [cytotoxic, partial curve]"
O=C(OCc1ccccc1)c1ccccc1,Potency,[1],"inconclusive: 24.4 µM [rising, partial curve]"
same,Potency,[2],"inconclusive: 54.5 µM [cytotoxic, partial curve, poor fit]"
same,Potency,[8],"inconclusive: 6.86 µM [rising, single point]"
O=C1OC(c2ccc(O)cc2)(c2ccc(O)cc2)c2ccccc21,Potency,[1],"inconclusive: 33.5 µM [cytotoxic, single point] and inconclusive: 68.6 µM [cytotoxic, single point]"
same,Potency,[2],"inconclusive: 33.5 µM [cytotoxic, single point] and active: 17.1 µM and inconclusive: 68.6 µM [cytotoxic, single point]"
same,Potency,[7],"inactive and inconclusive: 3.89 µM [activator, partial curve, poor fit]"
same,activity change,[9],inconclusive: -3.69% [activator]
same,Potency,[5],inconclusive: 68.1 µM [cytotoxic]
same,Potency,[10],"inconclusive: 60.7 µM [inhibitor] and inconclusive: 48.6 µM [inhibitor, partial curve]"
C[C@]12CC[C@@H]3c4ccc(O)cc4C[C@@H](CCCCCCCCCS(=O)CCCC(F)(F)C(F)(F)F)[C@H]3[C@@H]1CC[C@@H]2O (stereo partly drawn),Potency,[1],"inconclusive: 1.53 µM [rising, full curve, poor fit]"
same,Potency,[4],"inconclusive: 6.85 µM [cytotoxic, full curve, poor fit]"
same,Potency,[3],inactive
same,Potency,[6],"inconclusive: 6.16 µM [rising, full curve]"
same,Potency,[10],inactive
same,Potency,[8],"inconclusive: 8.4 nM [cytotoxic, full curve] and inconclusive: 1.5 nM [cytotoxic, full curve, poor fit]"
O,Potency,[1],active: 13.9 µM
same,Potency,[4],"inconclusive: 27.6 µM [cytotoxic, single point]"
CCN(Cc1c(F)cccc1Cl)c1c([N+](=O)[O-])cc(C(F)(F)F)cc1[N+](=O)[O-],Potency,[1],active: 30.6 µM
same,Potency,[4],active: 24.3 µM
same,Potency,[3],"inconclusive: 12.3 µM [cytotoxic, full curve]"
CCc1cccc(O)c1,Potency,[1],inactive
same,Potency,[2],inactive
same,Potency,[5],inactive
same,"activity change, negative = cytotoxic",[8],inconclusive: 33.4% [at 95 µM]
Nc1ccc([N+](=O)[O-])cc1O,Potency,[1],"inconclusive: 6.11 µM [rising, full curve]"
same,Potency,[2],active: 47.2 µM
same,Potency,[5],active: 54.5 µM
same,Potency,[8],active: 36.4 µM
Oc1ccc(C2CNCCc3c2cc(O)c(O)c3Cl)cc1 (stereo not drawn),Potency,[1],inactive
same,Potency,[4],inactive
O=C1c2cccc(O)c2C(=O)c2c(O)cccc21,Potency,[1],inactive
same,Potency,[4],"inconclusive: 13.3 µM [cytotoxic, single point]"
CCN1CCN(c2cc(-c3ccc(F)cc3)c3c(n2)CCCCCC3)CC1,Potency,[1],"inconclusive: 1.68 µM [cytotoxic, full curve, poor fit]"
same,Potency,[2],"inconclusive: 2.98 µM [cytotoxic, full curve]"
same,Potency,[7],"inconclusive: 4.77 µM [rising, full curve]"
same,Potency,[8],active: 13.3 µM
Cc1ccc(O)c(-n2nc3ccccc3n2)c1,Potency,[1],"inconclusive: 18.8 µM [cytotoxic, partial curve] and inactive"
same,Potency,[2],"inconclusive: 13.3 µM [cytotoxic, full curve]"
same,Potency,[8],"inconclusive: 68.6 µM [cytotoxic, single point]"
O=C=Nc1ccc(Cl)c(Cl)c1,Potency,[1],"inconclusive: 67.5 µM [cytotoxic, single point]"
same,Potency,[2],"inconclusive: 60.1 µM [cytotoxic, partial curve]"
same,Potency,[5],inactive
same,Potency,[8],"inconclusive: 67.5 µM [rising, single point]"
Cc1cccc2n[nH]nc12,Potency,[1],inactive
same,Potency,[2],inactive
same,Potency,[8],inactive
CC(CN(CCN(CC(C)OCCO)CC(C)OCCO)CC(C)OCCO)OCCO (stereo not drawn),Potency,[1],active: 18.6 µM
same,Potency,[4],active: 20.9 µM
CN(C)c1ccc(C2(c3ccc(N(C)C)cc3)OC(=O)c3cc(N(C)C)ccc32)cc1,Potency,[1],"inconclusive: 13.6 µM [cytotoxic, partial curve]"
same,Potency,[2],inconclusive: 13.6 µM [cytotoxic]
same,Potency,[6],inactive
same,Potency,[7],"inconclusive: 12.3 µM [falling, full curve]"
COCCOc1cc2cc(C(=O)NC3CCN(C(C)C)CC3)n(CC(=O)Nc3ccc(Cl)cn3)c2cn1,Potency,[1],"inconclusive: 67.8 µM [cytotoxic, single point]"
same,Potency,[4],inconclusive: 60.4 µM [cytotoxic]
N#[N+]c1ccc2c(S(=O)(=O)[O-])cccc2c1O,Potency,[1],inconclusive: 27.3 µM [cytotoxic]
same,Potency,[2],inactive
same,Potency,[8],inactive
CCOCC(=O)O,Potency,[1],"inconclusive: 0.313 µM [rising, full curve, poor fit]"
same,Potency,[4],inactive
COc1cc(O)c(C(=O)c2ccccc2)cc1S(=O)(=O)O,Potency,[1],"inconclusive: 67.8 µM [rising, partial curve, poor fit]"
same,Potency,[2],inactive
same,"activity change, negative = inhibition",[6],inconclusive: -11.6%
Cc1cc(=O)oc2cc(O)ccc12,Potency,[1],"inactive and inconclusive: 77 µM [cytotoxic, single point]"
same,Potency,[2],"inconclusive: 61.1 µM [cytotoxic, partial curve, poor fit]"
same,Potency,[8],"inconclusive: 10.1 µM [rising, partial curve] and inconclusive: 61.1 µM [rising, partial curve] and inconclusive: 68.6 µM [rising, partial curve]"
C=C[C@H]1CN2CC[C@H]1C[C@@H]2[C@@H](O)c1ccnc2ccc(OC)cc12,Potency,[1],"inconclusive: 67.5 µM [cytotoxic, single point]"
same,Potency,[2],inconclusive: 29.8 µM [cytotoxic]
same,Potency,[8],"inconclusive: 47.8 µM [cytotoxic, partial curve]"
Clc1cccc(Cl)c1NC1=NCCN1,Potency,[1],inactive
same,Potency,[4],"inconclusive: 77 µM [cytotoxic, partial curve, poor fit]"
COc1cccc(O)c1O,Potency,[1],"inconclusive: 28.4 µM [cytotoxic, single point]"
same,Potency,[4],"inconclusive: 28.4 µM [cytotoxic, single point]"
same,Potency,[3],"inconclusive: 64.1 µM [cytotoxic, partial curve, poor fit]"
same,Potency,[6],"inconclusive: 64.1 µM [rising, partial curve, poor fit]"
same,Potency,[7],"inconclusive: 22.7 µM [activator, partial curve, poor fit]"
same,Potency,[5],inactive
same,Potency,[10],"inconclusive: 35.7 µM [inhibitor, partial curve, poor fit]"
O=C(Oc1ccccc1)c1cccc(C(=O)Oc2ccccc2)c1,Potency,[1],inconclusive: 72.3 µM [cytotoxic]
same,Potency,[2],active: 72.3 µM
same,Potency,[6],inconclusive: 6.5 µM
same,Potency,[7],inconclusive: 6.5 µM [fluorescent]
same,Potency,[8],inconclusive: 72.3 µM
CCCC(=O)C(C)=O,Potency,[1],inactive
same,Potency,[2],inactive
same,Potency,[8],inactive
O=C1c2ccccc2C(=O)C1c1ccc(Br)cc1,Potency,[1],inactive
same,Potency,[2],"inconclusive: 16.8 µM [rising, partial curve, poor fit]"
same,Potency,[7],"inconclusive: 23.9 µM [rising, partial curve]"
same,Potency,[8],inactive
Cc1ccccc1N=C(N)Nc1ccccc1C,Potency,[1],"inconclusive: 67.3 µM [cytotoxic, single point]"
same,Potency,[4],"inconclusive: 67.3 µM [cytotoxic, single point]"
CC(C)NNC(=O)c1ccncc1,Potency,[1],inactive
same,Potency,[2],"inconclusive: 26.6 µM [rising, partial curve, poor fit]"
same,"viability change, negative = cytotoxic",[5],inconclusive: 38.2%
CCC(=O)/C=C/C1C(C)=CCCC1(C)C (stereo not drawn),Potency,[1],"inconclusive: 68.6 µM [cytotoxic, single point]"
same,Potency,[2],"inactive and inconclusive: 30.6 µM [cytotoxic, partial curve]"
same,Potency,[8],inactive
